The results in this text go back to PubChem BioAssay AID1963576 (National Center for Advancing Translational Sciences (NCATS), 2024).

Each structure is given as a SMILES string. Screen size: about 46,000 compounds; about 60 (0.1%) were called active. Inconclusive results (about 3%) are left out. Calls follow the shape of the dose curve; as a rule, active = well fitted inhibition curve with a large enough effect; inconclusive = small, poorly fitted or top-dose-only effect; inactive = no such curve, though single readings can be large or run the other way. The list shows a part of the results.

The assay can be described thus: Primary qHTS assay for Inhibitors of ovarian cancer metastasis using an organotypic tumor microenvironment (TME) model. Also: nearly all actives have a fitted effect of over 65% in size.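 As to activity change, negative = inhibition: plate controls were DMSO wells for no effect and tomatine positive control wells for full effect.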 Conditions: SKOV3ip1-GFP adhesion/invasion on 3D omental model, fluorescence; series mostly up to 45.8 µM; activity change, negative = inhibition: at the top concentration. The procedure, abridged:
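Adhesion/invasion was scored as fixed GFP-labeled SKOV3ip1 cell counts (488/509 nm), normalized to DMSO and tomatine controls. Cancer cells in serum-free medium, with four compound doses (0.36-46 umol/L), sat 2 hr at RT then 16 hr at 37 C on a 48 hr fibroblast/mesothelial/ECM culture.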
`Cc1c(CCC(=O)NCc2cccc(Cl)c2)c(=O)oc2c(C)c(O)ccc12`: the “activity change, negative = inhibition” value was inactive: -25.6%.

Consider `Cc1ccc(CCNC(=O)CS(=O)Cc2nc(-c3ccccc3C)oc2C)cc1` (stereo unspecified), for which the “activity change, negative = inhibition” value is inactive: -30.1%.

For `CCCc1ccc(-c2ccc(C(=O)Oc3ccc(OCC)cc3)cc2)nc1`, the “activity change, negative = inhibition” value is inactive: -1.01%.

With `CCCCN(C)S(=O)(=O)c1ccc(C(=O)Nc2sc3c(c2C(N)=O)CC(C)(C)NC3(C)C)cc1`, the “activity change, negative = inhibition” value is inactive: -2.75%.

For the compound `CCc1ccc(OCc2nc(-c3ccc(OC)cc3)no2)c(Br)c1`, the “activity change, negative = inhibition” value was inactive: 9.97%.

As to `O=C(Cn1ncc2c3ccccc3n(Cc3cccc(Cl)c3)c2c1=O)NCc1cccs1`, the “activity change, negative = inhibition” value was inactive: 6.52%.

In the case of `O=C(CSc1nc2c(oc3ccccc32)c(=O)n1Cc1ccco1)Nc1ccccc1Cl`, the result was inactive.

Turning to `O=C(Cn1cnc2c(oc3ccccc32)c1=O)Nc1ccc(F)cc1F`, the “activity change, negative = inhibition” value was inactive: -4.02%.

Take `CCOc1ccc(C2C(=O)N(C3CCCCCC3)CC(=O)N2CCc2ccc(OC)c(OC)c2)cc1OC` (stereo unspecified): the compound was classed as inactive.

Turning to `O=S(=O)(c1ccc2nc(NCc3ccccc3Cl)ccc2c1)N1CCCCC1`, the compound was classed as inactive.

`O=C(Nc1nc2ccccc2s1)c1ccc(S(=O)(=O)N2CCCC2)cc1`: the “activity change, negative = inhibition” value was inactive: 1.11%.

On to `COc1cc(Cl)c(NS(=O)(=O)c2ccc(-c3cnc(C4CC4)o3)cc2)c(OC)c1`, for which the “activity change, negative = inhibition” value is inactive: 5.74%.

On to `COc1ccc(CNC(=O)CSc2nc(-c3ccc(OC)c(OC)c3)cc(C(F)(F)F)n2)cc1`, for which the “activity change, negative = inhibition” value was inactive: 90.8%.

With `CC(CNC(=O)c1ccc(CSc2nc3ccncc3n2Cc2ccccc2)cc1)c1ccccc1` (stereo unspecified), the “activity change, negative = inhibition” value was inactive: -15.2%.

Take `CCS(=O)(=O)c1nc(S(=O)(=O)c2ccc(C)cc2)c(NCCCOC)s1`: the “activity change, negative = inhibition” value was inactive: -4.9%.

With `CCOC(=O)c1ccc(NC(=O)NCCOCCn2c(=O)oc3ccccc32)cc1`, the outcome was inactive.

As to `CCOC(=O)c1cc(S(=O)(=O)N2CCN(c3ccc(C(C)=O)cc3)CC2)[nH]n1`, the “activity change, negative = inhibition” value is inactive: -7.84%.

For the compound `CCCC12CN3CC(CCC)(CN(C1)C3c1ccccc1)C2=O` (stereo unspecified), the “activity change, negative = inhibition” value is inactive: 1.6%.

Take `CC(=O)c1ccc(NC(=O)c2ccc(-c3ccc(Cl)cc3)o2)cc1`: the “activity change, negative = inhibition” value was inactive: -7.1%.

As to `CCN(CC)CCNC(=O)c1ccc2nc(CCc3ccccc3)oc2c1`, the compound was called inactive.

`O=C(Nc1ccccc1Br)C(Cc1ccccc1)NS(=O)(=O)c1cccc2nsnc12` (stereo unspecified): the “activity change, negative = inhibition” value is inactive: -16.4%.

Consider `COc1ccccc1NC(=O)C1CCN(C(=O)c2sc3nc[nH]c(=O)c3c2C)CC1`, for which the outcome was inactive.

In the case of `Nc1cc(=O)nc(SCC(=O)Nc2ccc(F)cc2)n1CCc1ccccc1`, the “activity change, negative = inhibition” value is inactive: -24.5%.

Take `COc1ccc(N2CC(NC(=O)c3ccco3)CC2=O)cc1` (stereo unspecified): the compound was called inactive.

As for `Cc1cc2oc3c(c(=O)c2cc1C)C1(C(=O)N(C)c2ccccc21)N(CCO)C3=O` (stereo unspecified), the compound was called inactive.

On to `CCn1c(CNC(=O)c2ccc(OC)cc2)nnc1SCC(=O)Nc1ccc(C)cc1`, for which the “activity change, negative = inhibition” value was inactive: 4.08%.

For `CCc1cccc(C)c1NC(=O)Cn1c(=O)cc(C)c2c(C)nn(-c3cccc(F)c3)c21`, the compound was classed as inactive.

Consider `Cc1nn(-c2ccc(N3CCCC3)nn2)c(C)c1CCC(=O)Nc1ccc(F)cc1F`, for which the “activity change, negative = inhibition” value is inactive: -8.52%.

On to `COc1ccc(CNC(=O)Cn2ncc3c([nH]c4ccccc43)c2=O)cc1`, for which the call was inactive.

On to `Cc1cccc(CCNC(=O)CCc2c(C)nc3c4c(C)cc(C)nc4nn3c2C)c1`, for which the “activity change, negative = inhibition” value was inactive: -1.61%.

Regarding `Cc1c(C(=O)Nc2ccccc2F)sc2ncnc(N(C)C3CCCCC3)c12`, the “activity change, negative = inhibition” value was inactive: -1.91%.

With `O=C(NCc1ccc(F)cc1)c1ccc(Nc2nc3ccccc3n3nnnc23)cc1`, the “activity change, negative = inhibition” value was inactive: -14.7%.

Take `COc1ccccc1N1CCN(c2cc(C)nc3nc(-c4ccc(C)cc4)nn23)CC1`: the “activity change, negative = inhibition” value was inactive: 20.5%.

On to `CC(=O)N1c2nc(C(C)C)nn2C2(CCCCC2)[C@@H]2CCCC[C@@H]21`, for which the “activity change, negative = inhibition” value was inactive: 14.7%.

As for `CC(C)CN(CCCNC(=O)c1cc(=O)[nH]c2ccc(S(=O)(=O)N3CCCCCC3)cc12)CC(C)C`, the “activity change, negative = inhibition” value is inactive: -8.78%.

As to `CC(C)C[C@H](NC(=O)CNC(=O)c1cc(Cl)ccc1Cl)B(O)O`, the “activity change, negative = inhibition” value was inactive: -8.7%.

Turning to `CCOc1ccc2oc(=O)cc(CN3CCN(c4cc(C)ccc4C)CC3)c2c1`, the outcome was inactive.

Consider `Cc1cccc(N2CCN(C(=O)c3cccn4c(=O)c5cc(Cl)ccc5nc34)CC2C)c1` (stereo unspecified), for which the call was inactive.

Take `Cc1nc2nc(NC(=O)c3ccccc3F)[nH]n2c(=O)c1Cl`: the “activity change, negative = inhibition” value was inactive: 5.94%.

`O=C(Nc1ccc2oc(-c3ccc(O)c(Br)c3)nc2c1)c1cc2ccccc2o1`: the “activity change, negative = inhibition” value is inactive: -3.87%.

As for `Cc1ccn2c(Nc3ccc(C(C)C)cc3)c(-c3cccs3)nc2c1`, the “activity change, negative = inhibition” value is inactive: -3.25%.

For the compound `CCn1c2c(c(=O)n3ncc(C(=O)Nc4cc(Cl)ccc4C)c13)CN(Cc1ccc(OC)cc1)CC2`, the “activity change, negative = inhibition” value was inactive: -1.79%.

As for `COc1ccc(C2C=C(c3cccc(OC)c3)Nc3c(C(=O)Nc4ccccc4)cnn32)cc1` (stereo unspecified), the “activity change, negative = inhibition” value is inactive: 3.81%.

With `COc1cc(OC)c(NC(=O)C2=C(C)C(=O)OC23CCCCCC3)cc1Cl`, the compound was called inactive.

With `O=C(CSc1nnc(-c2cccc(Cl)c2)o1)N1CCc2ccccc21`, the “activity change, negative = inhibition” value is inactive: 9.11%.

As to `O=C(NCCc1ccc(Cl)cc1)C1CCN(c2ncnc3c2nc2n3CCCCC2)CC1`, the call was inactive.

`Cc1ccc(Cl)cc1NC(=O)CCC(=O)N1CC(C)Sc2ccccc21` (stereo unspecified): the “activity change, negative = inhibition” value is inactive: -8.05%.

`COc1ccccc1-c1nnc(SCC(=O)Nc2ccccc2F)o1`: the “activity change, negative = inhibition” value is inactive: -8.91%.

On to `CN(Cc1ccco1)C(=O)c1ccc2c(c1)N(Cc1ccccc1F)C(=O)c1ccccc1S2`, for which the compound was called inactive.

With `CC(=O)N1c2ccc(S(=O)(=O)NCC3CCC(C(=O)Nc4ccc(C)cc4)CC3)cc2CC1C` (stereo unspecified), the “activity change, negative = inhibition” value was inactive: -2.52%.

Take `Cc1ccc(-n2c(=O)c3c4c(sc3n(CC(=O)c3ccc(Cl)cc3)c2=O)CCC4)cc1C`: the “activity change, negative = inhibition” value is inactive: 7.63%.

With `CCOc1ccc(NC(=O)c2cc(S(=O)(=O)N3CCCCCC3)cn2C)cc1`, the “activity change, negative = inhibition” value was inactive: -9.04%.

As to `Cc1c2cnn(-c3ccccc3)c(=O)c2c(C)n1CC(=O)NCCc1ccc(Cl)cc1`, the “activity change, negative = inhibition” value is inactive: 6.56%.

Take `COc1ccc2c(c1)c1c(c(=O)n(-c3ccc(F)c(Cl)c3)c(=O)n1CC(=O)N1CCCC1)n2C`: the result was inactive.

As for `COC(=O)c1cc2sc(C)cc2n1CC(=O)Nc1ccc(C)c(C)c1`, the “activity change, negative = inhibition” value is inactive: -3.24%.

In the case of `CC(=O)N1CCc2c(sc3c2c(=O)n(-c2ccccc2)c(=O)n3CC(=O)Nc2ccccc2)C1`, the compound was called inactive.

On to `COc1cc(CNC(=O)c2ccc3c(c2)N(C)C(=O)C2CCCCN32)cc(OC)c1OC` (stereo unspecified), for which the “activity change, negative = inhibition” value is inactive: -1.32%.

Take `CCOC(=O)c1ccc(NC(=O)Cn2c(=O)n(-c3ccc(C)cc3)c(=O)c3c2cnn3C)cc1`: the “activity change, negative = inhibition” value was inactive: 2.61%.

As for `Cc1ccccc1NC(=O)Cn1c(SCC(=O)Nc2ccc(F)cc2)nc2ccccc21`, the “activity change, negative = inhibition” value is inactive: -29.6%.

On to `Cc1c(-c2nc(-c3ccc4c(c3)OCO4)no2)nnn1-c1ccc(Br)cc1F`, for which the “activity change, negative = inhibition” value was inactive: 1.51%.

As for `Cc1ccc2nc(Nc3cccc(Cl)c3C)c(-n3nc(C)cc3C)nc2c1`, the “activity change, negative = inhibition” value is inactive: -4.87%.
